From PubChem BioAssay AID504333 (National Center for Advancing Translational Sciences (NCATS), 2011)
In all, about 360,000 compounds went through this assay and about 16,000 (4.4%) were called active. Inconclusive results, whose numbers are uncertain, are shown with a selection of clear calls. Calls follow the shape of the dose curve; as a rule, active = well fitted inhibition curve with a large enough effect; inconclusive = small, poorly fitted or top-dose-only effect; inactive = no such curve, though single readings can be large or run the other way. Where the call is inconclusive, the potency comes from a doubtful curve fit.

Molecular target: Bromodomain adjacent to zinc finger domain protein 2B (Homo sapiens) (UniProt Q9UIF8)
Sequence of UniProt Q9UIF8 (Q9UIF8 whole entry, looked up, the tested form may be a part): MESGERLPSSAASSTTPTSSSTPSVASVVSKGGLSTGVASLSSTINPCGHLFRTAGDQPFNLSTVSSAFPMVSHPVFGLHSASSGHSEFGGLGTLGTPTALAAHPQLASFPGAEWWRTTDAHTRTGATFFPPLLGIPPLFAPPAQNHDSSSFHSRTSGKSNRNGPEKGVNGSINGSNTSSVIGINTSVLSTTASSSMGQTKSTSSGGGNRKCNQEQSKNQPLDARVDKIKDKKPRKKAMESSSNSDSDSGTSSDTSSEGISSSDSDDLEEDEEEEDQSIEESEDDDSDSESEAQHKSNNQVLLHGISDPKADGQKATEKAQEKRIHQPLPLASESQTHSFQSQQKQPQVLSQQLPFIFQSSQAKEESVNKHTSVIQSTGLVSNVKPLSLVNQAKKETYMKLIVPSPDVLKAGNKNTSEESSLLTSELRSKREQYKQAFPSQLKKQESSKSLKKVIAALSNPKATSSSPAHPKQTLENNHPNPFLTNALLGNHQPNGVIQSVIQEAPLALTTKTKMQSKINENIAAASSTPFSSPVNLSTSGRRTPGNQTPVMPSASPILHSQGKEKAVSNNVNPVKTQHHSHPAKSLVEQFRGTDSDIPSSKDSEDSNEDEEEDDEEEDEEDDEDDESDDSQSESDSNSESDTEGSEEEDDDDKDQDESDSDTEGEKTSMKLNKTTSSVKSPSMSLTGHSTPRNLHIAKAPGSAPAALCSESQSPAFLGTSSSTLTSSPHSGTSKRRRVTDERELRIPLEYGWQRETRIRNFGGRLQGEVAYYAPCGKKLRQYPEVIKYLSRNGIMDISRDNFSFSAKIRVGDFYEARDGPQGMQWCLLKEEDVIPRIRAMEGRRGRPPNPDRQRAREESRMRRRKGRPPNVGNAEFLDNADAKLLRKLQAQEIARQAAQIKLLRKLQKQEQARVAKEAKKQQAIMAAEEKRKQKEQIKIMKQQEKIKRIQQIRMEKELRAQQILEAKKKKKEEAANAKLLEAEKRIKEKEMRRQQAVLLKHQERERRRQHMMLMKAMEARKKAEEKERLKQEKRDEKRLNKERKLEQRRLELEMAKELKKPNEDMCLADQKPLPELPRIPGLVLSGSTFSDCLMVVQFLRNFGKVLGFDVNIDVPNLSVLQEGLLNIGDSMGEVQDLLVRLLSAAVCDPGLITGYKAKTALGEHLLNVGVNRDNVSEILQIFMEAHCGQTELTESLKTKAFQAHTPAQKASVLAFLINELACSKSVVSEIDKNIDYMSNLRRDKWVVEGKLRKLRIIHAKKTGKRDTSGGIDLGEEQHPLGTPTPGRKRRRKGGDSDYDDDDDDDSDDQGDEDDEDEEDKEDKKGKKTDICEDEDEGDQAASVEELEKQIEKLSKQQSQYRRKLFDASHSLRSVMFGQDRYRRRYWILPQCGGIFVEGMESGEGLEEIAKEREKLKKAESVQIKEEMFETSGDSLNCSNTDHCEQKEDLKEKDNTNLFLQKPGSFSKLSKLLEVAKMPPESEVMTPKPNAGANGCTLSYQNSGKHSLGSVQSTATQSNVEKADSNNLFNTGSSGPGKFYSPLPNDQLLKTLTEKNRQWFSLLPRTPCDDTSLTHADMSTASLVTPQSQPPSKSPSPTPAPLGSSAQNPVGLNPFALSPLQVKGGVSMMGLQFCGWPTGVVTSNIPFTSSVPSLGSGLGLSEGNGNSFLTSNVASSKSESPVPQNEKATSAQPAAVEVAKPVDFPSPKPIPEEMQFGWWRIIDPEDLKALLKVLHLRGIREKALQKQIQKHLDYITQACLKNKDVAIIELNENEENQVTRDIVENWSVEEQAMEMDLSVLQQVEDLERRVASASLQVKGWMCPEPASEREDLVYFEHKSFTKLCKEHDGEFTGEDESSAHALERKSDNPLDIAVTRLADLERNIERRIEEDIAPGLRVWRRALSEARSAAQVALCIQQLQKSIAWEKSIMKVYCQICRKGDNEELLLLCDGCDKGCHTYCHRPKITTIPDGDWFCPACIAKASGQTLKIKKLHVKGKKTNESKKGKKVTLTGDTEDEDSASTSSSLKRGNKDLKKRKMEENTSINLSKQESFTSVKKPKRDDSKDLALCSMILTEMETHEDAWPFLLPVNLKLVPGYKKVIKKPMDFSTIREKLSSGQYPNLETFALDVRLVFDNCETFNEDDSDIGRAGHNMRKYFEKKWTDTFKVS
Assay: qHTS Assay for Inhibitors of BAZ2B; also: nearly all actives have a fitted effect of over 60% in size
Settings: AlphaScreen BAZ2B-H3K14Ac peptide displacement; activity change, negative = inhibition: at 114 µM (top of the series)
Outline: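 BAZ2B (50 nM) with biotin-H3(5-23)K14Ac peptide (50 nM) in PBS pH 7.4, 0.01% Tween-20, preformed 30 min, then compound 30 min at room temperature; top concentration 110uM. AlphaScreen streptavidin donor/nickel chelate acceptor beads (10 ug/mL final), 20 min dark, signal read.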
% is scaled to controls: 0 for no effect and ±100 for the full control effect; potency is read from the fitted curve at half-maximal effect; tags tell the direction and shape of the fitted curve.

SMILES | activity change, negative = inhibition | Potency
Cn1nccc1C(=O)OCC(=O)Nc1ccccc1Cl | inactive: -1.98% | 
CCOc1cc(/C=C2\SC(=S)N(NC(=O)c3cccnc3)C2=O)ccc1O |  | active: 10 µM
CC(=O)NCC(=O)OCC(=O)Nc1ccc(C(C)=O)cc1 |  | inconclusive: 79.4 µM [inhibitor, single point]
Cc1oc(-c2cccc(Cl)c2)nc1CN1CCCC(C(=O)NC(C)c2ccc3c(c2)OCCO3)C1 (stereo not drawn) |  | inconclusive: 50.1 µM [inhibitor, partial curve]
O=C(/C=C/c1ccco1)Nc1nc(-c2ccccc2)cs1 |  | inconclusive: 50.1 µM [inhibitor, partial curve]
COc1ccccc1NC(=O)NC(=O)c1ccccc1 |  | inconclusive: 89.1 µM [inhibitor, single point]
COc1cccc(/C=N/Nc2ccnc(=O)[nH]2)c1O |  | active: 50.1 µM
CCOc1ccc(S(=O)(=O)NCCC(=O)OCC(=O)c2ccc(NC(C)=O)cc2)cc1 | inactive: 3.95% | 
CC(C)c1ccc(Nc2ncnc3onc(-c4ccc(F)cc4)c23)cc1 | inactive: 10.4% [at 57.1 µM] | 
Nc1ccc2c(c1)OC1(CCCCC1)O2 |  | inconclusive: 44.7 µM [inhibitor, partial curve]
N#Cc1ccc(Oc2nc(C(N)=O)cc(-c3ccccc3)n2)cc1 |  | inconclusive: 89.1 µM [inhibitor, single point]
O=C(COC(=O)c1ccc(Br)o1)Nc1ncc(Cl)cc1Cl |  | active: 50.1 µM
Cc1cccc(-n2nc(C(=O)c3ccco3)cc(-c3nc4ccccc4[nH]3)c2=N)c1 |  | inconclusive: 2 µM [inhibitor, full curve]
Cn1cccc1C(NC(=O)c1ccccc1)C(Cl)(Cl)Cl (stereo not drawn) |  | inconclusive: 50.1 µM [inhibitor, partial curve]
CC(=O)Nc1ccc(-n2cc(-c3ccccc3)[nH]c2=S)cc1 |  | inconclusive: 70.8 µM [inhibitor, partial curve]
O=c1c2ccccc2sn1-c1cc(S(=O)(=O)N2CCOCC2)ccc1N1CCOCC1 |  | active: 3.55 µM
O=C(NC1CCCc2ccccc21)c1cc(Cl)ccn1 (stereo not drawn) | inactive: 2.28% | 
CCOC(=O)CCc1c(C)c2ccc(OC(C)C(=O)OCC)c(C)c2oc1=O (stereo not drawn) | inactive: 13.6% | 
Cc1coc(C)c1C(=O)CC1(O)C(=O)N(Cc2ccccc2)c2ccccc21 (stereo not drawn) |  | inconclusive: 50.1 µM [inhibitor, partial curve]
COc1ccc2c(c1)C(=O)[C@@H](O)[C@H](c1ccc(OC)c(Br)c1)O2 |  | active: 89.1 µM
COc1cc(NC(=O)C2=CC(c3cccs3)=NS(=O)(=O)N2C)cc(OC)c1OC |  | inconclusive: 35.5 µM [inhibitor, partial curve]
O=C1/C(=C/C=C/c2ccccc2)Oc2c1ccc(O)c2CN1CCN(CCO)CC1 |  | inconclusive: 79.4 µM [inhibitor, single point]
COc1ccc(/C=C/C(=O)NC(=S)Nc2ccc(C(=O)O)cc2)cc1 |  | inconclusive: 89.1 µM [inhibitor, single point]
CCCCC1(C)OC(=O)C(=Cc2ccc(N(C)C)cc2)C(=O)O1 (stereo not drawn) |  | inconclusive: 89.1 µM [inhibitor, single point]
Cc1ccc2onc(CC(=O)N3CCN(c4cc(Cl)ccc4C)CC3)c2c1 |  | inconclusive: 89.1 µM [inhibitor, single point]

SMILES | activity change, negative = inhibition | Potency
CCCCn1c(N)c(N(CCOC)C(=O)C2CCN(S(=O)(=O)c3ccc(C)c(C)c3)CC2)c(=O)[nH]c1=O | inactive: -4.53% | 
CCOC(=O)c1sc(NC(=O)CSc2nc(C)cc(C(F)(F)F)n2)c(C#N)c1C |  | inconclusive: 8.91 µM [inhibitor, single point]
O=C(NCc1ccco1)c1csc(Nc2ccccc2Cl)n1 |  | inconclusive: 89.1 µM [inhibitor, single point]
CCCS(=O)(=O)N1CC(=O)N(c2cccc(Cl)c2C)C(C)(C(=O)NC2CCCC2)C1 (stereo not drawn) | inactive: 3.88% | 
CCCn1c(C)cc(C(=O)COC(=O)c2ccc[nH]c2=O)c1C |  | inconclusive: 89.1 µM [inhibitor, single point]
O=C(/C=C/c1ccccc1)c1ccccc1 | inactive: 23.7% | 
O=C1/C(=C/c2ccc(O)c([N+](=O)[O-])c2)SC(=S)N1Cc1ccccc1 |  | inconclusive: 4.47 µM [inhibitor, full curve]
O=C(O)CN1C(=O)/C(=C\c2cc(Br)ccc2OCc2ccccc2Cl)SC1=S |  | active: 44.7 µM
CCOc1ccccc1NC(=O)c1nc(SC(C)C)ncc1Cl | inactive: 26.6% | 
c1ccc(-c2nnc(CN3CCCc4ccccc43)o2)cc1 |  | inconclusive: 79.4 µM [inhibitor, single point]
O=C(CN1C(=O)c2cccnc2Oc2ccc(Cl)cc21)NC1CCCCCC1 |  | inconclusive: 89.1 µM [inhibitor, single point]
COc1ccc(CN2C(=O)c3cccnc3C2=O)cc1S(=O)(=O)NC1CCCCC1 |  | active: 79.4 µM
COc1ccc(C(=O)CCC(=O)Nc2cc(Cl)c(O)c(Cl)c2)cc1 | inactive: -13.7% | 
CCCc1nc2sc3ccccc3c(=O)c2c(=O)n1Cc1ccco1 |  | inconclusive: 79.4 µM [inhibitor, single point]
O=C(NC(=S)NNS(=O)(=O)c1ccc(Cl)cc1)c1cccnc1 | inactive: 1.83% | 
O=C(CN1CCN(c2ccccc2O)CC1)Nc1ccc(S(=O)(=O)N2CCCCCC2)cc1 | inactive: -6.22% | 
O=C(COc1ccc2c(c1)OCO2)NC12CC3CC(CC(C3)C1)C2 |  | inconclusive: 28.2 µM [inhibitor, full curve, poor fit]
COc1ccc2[nH]c3c(C)c4ccncc4c(C)c3c2c1 |  | inconclusive: 15.8 µM [inhibitor, full curve]
OCCN1CCN(CCOc2cccc(Cl)c2)CC1 |  | inconclusive: 89.1 µM [inhibitor, single point]
O=[N+]([O-])c1cccnc1N1CCC(c2cc(-c3ccc(Cl)cc3)n[nH]2)CC1 |  | active: 50.1 µM
COc1ccc(N2CCN(CCCNC(=O)c3cc(Nc4ccc(OC)cc4OC)nc4ccccc34)CC2)cc1 |  | active: 15.8 µM
Cc1c(Cl)cnc(NC(=O)COC(=O)c2ccc([N+](=O)[O-])s2)c1Cl |  | active: 44.7 µM
CC(C)(C)n1nnnc1C(c1ccccn1)N1CCN(C(c2ccccc2)c2ccccc2)CC1 (stereo not drawn) |  | inconclusive: 56.2 µM [inhibitor, partial curve]
COc1cc(NC(=O)CCS(=O)(=O)c2ccc3c(c2)CC(=O)N3C)cc(OC)c1OC | inactive: -0.0875% | 
O=[N+]([O-])c1ccc(COc2ccc(CNc3ccccc3)cc2)cc1 |  | inconclusive: 79.4 µM [inhibitor, single point]

SMILES | activity change, negative = inhibition | Potency
CCCC(=O)Nc1nc(C)c(-c2csc(Nc3ccccc3OC)n2)s1 |  | inconclusive: 44.7 µM [inhibitor, partial curve]
COc1ccc(/C=C/c2nc(C#N)c(NCc3ccc(F)cc3)o2)cc1OC |  | inconclusive: 22.4 µM [inhibitor, full curve]
N/C(=N\OC(=O)Cc1ccc([N+](=O)[O-])cc1)c1cccc(Br)c1 |  | inconclusive: 15.8 µM [inhibitor, full curve]
CCOC(=O)CCc1c(C)n[nH]c1C | inactive: -18.1% | 
N#Cc1c(/N=C/c2ccc(-c3ccccc3C(=O)O)o2)sc2c1CCCC2 |  | active: 44.7 µM
O=C1C2CCCN2C(c2ccc(F)cc2)N1c1nccs1 (stereo not drawn) |  | inconclusive: 79.4 µM [inhibitor, single point]
Cc1ccc(C)c(OCCCCn2ccnc2)c1 |  | inconclusive: 89.1 µM [inhibitor, single point]
Cc1cc(NC(=O)CCS(=O)(=O)c2cc3c4c(c2)CCN4C(=O)CC3)ccc1Br | inactive: 10.8% | 
COc1cccc(CNCC(O)COc2ccc(C(=O)c3ccccc3)cc2)c1 (stereo not drawn) |  | active: 50.1 µM
Cc1ccc(/C=N/c2sc3c(c2C#N)CCCCC3)o1 |  | active: 28.2 µM
COc1ccc(OC)c(S(=O)(=O)NCC(=O)NC2CCCc3ccccc32)c1 (stereo not drawn) |  | inconclusive: 89.1 µM [inhibitor, single point]
CCOC(=O)c1nn(-c2ccccc2)c(=O)c(C#N)c1C |  | inconclusive: 100 µM [inhibitor, single point]
C=CCOc1ccc(C(c2c(C)n(C)n(-c3ccccc3)c2=O)c2c(C)n(C)n(-c3ccccc3)c2=O)cc1 |  | inconclusive: 79.4 µM [inhibitor, single point]
CC(C)CSc1nc2c(c(=O)[nH]c(=O)n2C)n1CCc1ccccc1 | inactive: 15.9% | 
Cc1cc2c(c(=O)n1Cc1ccccc1)C1O[C@](CCCCN3C(=O)c4ccccc4C3=O)(Cc3cc(C#N)ccc31)O2 |  | inconclusive: 14.1 µM [inhibitor, single point]
COc1cccc2cc(C(=O)NCCc3ccccc3)c(=O)oc12 | inactive: -3.36% | 
COc1cc(OC)c(OC)cc1/C=C/c1nc2cc3ccccc3cc2c(=O)n1-c1ccc(F)cc1F |  | inconclusive: 6.31 µM [inhibitor, full curve]
Cc1ccc(S(=O)(=O)/N=C2/C=C(C3C(=O)CC(C)(C)CC3=O)C(=O)c3ccccc32)cc1 |  | inconclusive: 89.1 µM [inhibitor, single point]
CCCc1cc(=O)n(-c2nc3ccccc3s2)[nH]1 | inactive: -12.5% | 
COc1cc(CN(C)CCc2ccccn2)cc(OC)c1OC |  | active: 20 µM
CC1=NN(c2ccccc2)C(=O)/C1=C\N1CC(C)OC(C)C1 (stereo not drawn) |  | inconclusive: 89.1 µM [inhibitor, single point]
CCCCn1c(-c2csc3c2CCC(C)C3)n[nH]c1=S (stereo not drawn) | inactive: -6.83% | 
O=c1c2ccc(Cl)cc2nc(-c2ccc([N+](=O)[O-])cc2)n1O |  | inconclusive: 3.55 µM [inhibitor, full curve, poor fit]
